In article PMC1851384:
No constants are given. Whether binding was seen depends on the method and setting. For some of these results: Binding seen in cells or lysates may run through a third protein. Some binding calls cover weakened binding; strength is not graded here.

By UniProt entry, the sequences of proteins in these tests, tags left out. Where a name states a change or a piece, a line headed by the entry shows the natural chain unless it says otherwise. Chains listed by the source or under a name are the forms on record and can include a tag or linker. Residues count along the entry.
UniProt Q14680: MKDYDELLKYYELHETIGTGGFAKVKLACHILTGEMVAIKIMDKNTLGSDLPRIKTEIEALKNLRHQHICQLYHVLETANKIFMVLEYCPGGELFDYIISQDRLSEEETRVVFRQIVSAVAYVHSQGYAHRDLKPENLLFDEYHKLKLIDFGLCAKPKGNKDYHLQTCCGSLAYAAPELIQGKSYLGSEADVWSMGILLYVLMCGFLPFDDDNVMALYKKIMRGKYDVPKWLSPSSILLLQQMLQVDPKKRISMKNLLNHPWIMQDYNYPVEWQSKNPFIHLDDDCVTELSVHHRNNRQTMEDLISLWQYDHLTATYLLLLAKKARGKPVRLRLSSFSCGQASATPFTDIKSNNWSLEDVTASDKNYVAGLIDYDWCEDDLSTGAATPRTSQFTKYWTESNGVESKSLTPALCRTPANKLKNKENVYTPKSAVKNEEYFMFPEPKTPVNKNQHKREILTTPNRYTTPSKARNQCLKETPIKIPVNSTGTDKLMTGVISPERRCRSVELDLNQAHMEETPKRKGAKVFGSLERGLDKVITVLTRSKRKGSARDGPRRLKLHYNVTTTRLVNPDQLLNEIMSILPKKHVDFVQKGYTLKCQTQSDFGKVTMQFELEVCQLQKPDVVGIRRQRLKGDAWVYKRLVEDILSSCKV
UniProt Q9BZR8: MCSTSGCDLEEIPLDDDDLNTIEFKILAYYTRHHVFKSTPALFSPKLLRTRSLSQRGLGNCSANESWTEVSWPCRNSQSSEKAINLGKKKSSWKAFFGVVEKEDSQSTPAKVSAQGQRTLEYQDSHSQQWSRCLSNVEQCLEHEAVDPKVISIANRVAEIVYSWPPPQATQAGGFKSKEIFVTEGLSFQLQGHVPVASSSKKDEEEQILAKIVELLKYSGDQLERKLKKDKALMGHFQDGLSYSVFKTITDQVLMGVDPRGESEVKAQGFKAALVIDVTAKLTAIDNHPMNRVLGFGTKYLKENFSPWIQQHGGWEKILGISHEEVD
Flag-tagged Bcl-GL C-1 construct (amino acids 1 to 305): residues 1-305 of Q9BZR8
Flag-tagged Bcl-GL C-2 construct (amino acids 1 to 295): residues 1-295 of Q9BZR8
Flag-tagged Bcl-GL C-3 construct (amino acids 1 to 215): residues 1-215 of Q9BZR8
Flag-tagged Bcl-GL N-1 construct (amino acids 12 to 327): residues 12-327 of Q9BZR8
Flag-tagged Bcl-GL N-3 construct (amino acids 121 to 327): residues 121-327 of Q9BZR8
Flag-tagged Bcl-GL N-4 construct (amino acids 171 to 327): residues 171-327 of Q9BZR8

Key:
[1] = biological target: His-tagged wild-type MELK recombinant protein (human) (UniProt Q14680); assay: pull-down; 0.5 uM His-tagged WT-MELK or D150A-MELK pre-immobilised on Ni-NTA agarose beads, incubated with 7.5 mg HBC4 cell lysate in 50 mM Tris-HCl pH 7.5, 50 uM ATP, 10 mM MgCl2, 25 mM NaCl, 1 mM DTT at 30°C for 5 minutes; SDS-PAGE, silver stain; band identified by MALDI-TOF mass spectrometry; only the target purified
[2] = biological target: His-tagged kinase-dead MELK (D150A) recombinant protein (human) (UniProt Q14680); assay: as above
[3] = biological target: Flag-tagged Bcl-GL C-3 construct (amino acids 1 to 215) (human) (UniProt Q9BZR8); assay: co-IP; HeLa cells co-transfected with Flag-tagged Bcl-GL (full length or partial) and HA-tagged WT-MELK; lysate precipitated with anti-Flag M2 agarose at 4°C for 12 hours; blot with anti-HA
[4] = biological target: Flag-tagged Bcl-GL C-1 construct (amino acids 1 to 305) (human) (UniProt Q9BZR8); assay: as above
[5] = biological target: Flag-tagged Bcl-GL C-2 construct (amino acids 1 to 295) (human) (UniProt Q9BZR8); assay: as above
[6] = biological target: Flag-tagged Bcl-GL N-4 construct (amino acids 171 to 327) (human) (UniProt Q9BZR8); assay: as above
[7] = biological target: Flag-tagged Bcl-GL N-3 construct (amino acids 121 to 327) (human) (UniProt Q9BZR8); assay: as above
[8] = biological target: Flag-tagged Bcl-GL N-1 construct (amino acids 12 to 327) (human) (UniProt Q9BZR8); assay: as above
[9] = biological target: Flag-tagged full-length Bcl-GL (human) (UniProt Q9BZR8); assay: as above
[10] = biological target: His-tagged kinase-dead MELK (D150A) recombinant protein (human) (UniProt Q14680); assay: condition: 5 μg of Bcl-GL recombinant protein in 500 μl; pull-down; in vitro binding assay: 10 ug His-tagged MELK held by anti-6XHis antibody on protein G Sepharose; 5 ug Bcl-GL recombinant protein in 500 ul binding buffer (50 mM Tris, 75 mM NaCl, 10 mM MgCl2, 1 mM DTT, 2% BSA, 100 uM ATP), 30 minutes at 4°C; blot with anti-Bcl-GL; both purified

In the case of “Bcl-G (approximately 30 kDa protein from HBC4 cell lysate) (from UniProt Q9BZR8-1 1-327)”, the binding [1] is reported as “binds” and the binding [2] is reported as “no binding”.

“HA-tagged wild-type MELK (from UniProt Q14680-1 1-651) (enzyme)” was tested, and the binding [3] was “binds”, the binding [4] was “binds” and the binding [5] was “binds”. The binding [6] was “no binding”, the binding [7] was “no binding” and the binding [8] was “binds”. The binding [9] was “binds”.

“Bcl-GL recombinant protein (GST removed) (from UniProt Q9BZR8-1 1-327)” was tested, and the binding [10] was “no binding”.
